Among all 310,000 compounds or so, about 14,000 (4.5%) showed an effect of 50% or more. The effect is printed as a negative number. Some of the results follow.
What follows are compounds tested against human ether-à-go-go-related gene (hERG) potassium channel (human, UniProt Q12809) (assay: primary screen, population patch clamp on CHO cells stably expressing hERG).
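Also: peak tail current of the secondary pulse compared with the same well before compound.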

Sequence of human ether-à-go-go-related gene (hERG) potassium channel (Q12809 whole entry, looked up): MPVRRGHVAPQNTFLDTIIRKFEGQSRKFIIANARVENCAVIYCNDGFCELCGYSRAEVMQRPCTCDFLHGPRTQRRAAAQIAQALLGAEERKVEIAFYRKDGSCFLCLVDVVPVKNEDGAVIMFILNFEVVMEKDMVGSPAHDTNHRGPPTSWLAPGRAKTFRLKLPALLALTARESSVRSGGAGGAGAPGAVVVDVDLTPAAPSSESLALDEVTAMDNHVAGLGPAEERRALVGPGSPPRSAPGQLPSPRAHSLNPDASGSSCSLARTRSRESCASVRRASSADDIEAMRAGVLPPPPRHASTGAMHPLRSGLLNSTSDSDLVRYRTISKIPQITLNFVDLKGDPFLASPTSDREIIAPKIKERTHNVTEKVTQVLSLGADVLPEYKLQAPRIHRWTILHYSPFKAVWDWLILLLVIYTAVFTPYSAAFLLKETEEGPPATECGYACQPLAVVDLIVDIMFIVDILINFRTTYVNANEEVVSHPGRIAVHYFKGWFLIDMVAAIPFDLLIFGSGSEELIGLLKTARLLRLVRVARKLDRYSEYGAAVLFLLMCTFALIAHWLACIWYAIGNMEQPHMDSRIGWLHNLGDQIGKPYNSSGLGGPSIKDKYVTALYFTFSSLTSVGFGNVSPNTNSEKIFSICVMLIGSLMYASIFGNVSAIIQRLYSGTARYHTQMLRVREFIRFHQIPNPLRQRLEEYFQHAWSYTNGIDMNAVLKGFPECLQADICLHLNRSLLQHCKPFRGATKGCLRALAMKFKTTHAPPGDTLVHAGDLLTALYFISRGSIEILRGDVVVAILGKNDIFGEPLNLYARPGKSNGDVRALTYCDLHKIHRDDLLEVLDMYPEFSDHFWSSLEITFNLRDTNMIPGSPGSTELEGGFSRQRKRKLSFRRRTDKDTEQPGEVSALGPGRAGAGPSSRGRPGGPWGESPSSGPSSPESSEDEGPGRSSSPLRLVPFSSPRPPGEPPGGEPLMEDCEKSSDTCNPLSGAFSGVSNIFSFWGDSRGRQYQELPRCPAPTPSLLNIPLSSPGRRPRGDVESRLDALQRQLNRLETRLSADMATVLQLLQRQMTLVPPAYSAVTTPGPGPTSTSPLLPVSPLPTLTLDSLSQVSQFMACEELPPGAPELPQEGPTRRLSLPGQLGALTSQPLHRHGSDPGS

Compound	hERG current change (%, negative = inhibition) at 10uM [%]
Cc1ccc(S(=O)(=O)NC(C)C(=O)N2CCOCCOCCOCC2)cc1 (stereo not shown)	18.9
Nc1nc(-c2cccnc2)nn1C(=O)CCc1ccccc1	-2.14
O=C1NCN(c2ccccc2)C12CCN(CCCC(c1ccc(F)cc1)c1ccc(F)cc1)CC2	-75.8
O=C1CCCN1CCCNC(=S)Nc1cccc2ccccc12	17.2
O=C(O)CCC1=C2c3ccccc3CCN2C(=O)CC1	9.77
COCCN(Cc1cc2c(C)cc(C)cc2nc1Cl)C(=O)c1ccccc1F	44.3
O=C(CCNc1ccc(Cc2ccncc2)cc1)c1ccc([N+](=O)[O-])cc1	-56.8
COC(=O)NNC(=S)Nc1cc(OC)ccc1OC	0.464
COc1ccc(C(=O)N2CCc3ccccc32)cc1S(=O)(=O)N1CCOCC1	-26.5
Cc1cccc(Cc2nnc(CCC(=O)N3CCCCC3c3nccs3)o2)c1 (stereo not shown)	-7.23
N#CC1(c2ccccc2)CCC(=O)N1Cc1ccccc1 (stereo not shown)	13.7
CC(=O)c1sc(NC(=O)c2oc3ccc(F)cc3c2C)nc1C	0.318
O=C(Nc1ccc2nc(C3CC3)n(Cc3ccccc3)c(=O)c2c1)C1CC1	-6.15
CCOC(=O)CNC(=O)CN1C(=O)CCSc2ccccc21	10.2
CC(=O)Oc1ccc2cc(-c3ccccc3)c(=O)oc2c1	21
Cc1ccc(C(=O)Nc2cccc3ncccc23)cc1[N+](=O)[O-]	-9.03
CC(=O)N1c2ccc(S(=O)(=O)NCCC(=O)Nc3ncccc3C)cc2CC1C (stereo not shown)	6.75
COc1ccc(C(OC(=O)c2ccco2)C(=O)NC2CCCCC2)cc1OC (stereo not shown)	19.8
CC1CC(C)CN(C(=O)COC(=O)CCc2nc3ccccc3c(=O)[nH]2)C1 (stereo not shown)	3.75
O=C(NC1CCCCC1)C(c1ccc(O)c(O)c1)N(C(=O)Cn1nnc2ccccc21)c1cccc(O)c1 (stereo not shown)	17.7
CN(C)/C=N/N(C)c1ncccc1[N+](=O)[O-]	16.1
CCNC(=S)NS(=O)(=O)c1ccc(C)cc1	-6.57

Compound	hERG current change (%, negative = inhibition) at 10uM [%]
COc1ccc(NS(=O)(=O)c2cc(NC(=O)CC3CCCC3)ccc2N2CCOCC2)cc1	-3.69
Cc1ccc(NC(=O)C(c2ccccc2)N2CCN(CC(=O)N3CCOCC3)CC2)cc1 (stereo not shown)	-43
CCCNC(=S)Nc1ccc(CC(=O)OC)cc1	3.54
COc1ccc(CCNC(=O)CCCc2nnc3n(C)c(=O)c4sccc4n23)cc1OC	19.4
O=C(NCc1ccccc1Cl)c1csc2c1CCCCC2	20.1
CCSc1cc(N2CCCC2)nc(-c2ccccc2)n1	11.6
CCN(C(=O)COC(=O)C1CC1)c1c(N)n(Cc2ccccc2)c(=O)[nH]c1=O	-14.5
O=C(c1ccc(NS(=O)(=O)c2cccc([N+](=O)[O-])c2)cc1)N1CCN(C(=O)c2ccco2)CC1	-15.3
CC1(C)CC(=O)C=C(NCCc2c[nH]c3ccccc23)C1	-12.1
COc1ccc(NC(=O)CSc2nc3nc(C)cc(C)c3c(=O)[nH]2)cc1	16.7
CC(=O)C(=Nc1cccc(Cl)c1)NNc1ccccc1C	8.82
CCc1ccc(NS(=O)(=O)c2c(C)nc3sc(CC)nn3c2=O)cc1	-9.17
CCCN(C(=O)c1ccc(-n2cncn2)c([N+](=O)[O-])c1)C1CCS(=O)(=O)C1 (stereo not shown)	1.56
O=C(CCCN1C(=O)c2cccc3cccc(c23)C1=O)Nc1ccon1	9.73
Cc1ccc(NC(=O)C(c2ccccc2)N2CCN(CC(=O)N3CCOCC3)CC2)cc1Cl (stereo not shown)	-67.4
CCc1oc(C(=O)OC)cc1CSC(=N)N.Cl	12
O=C(Nc1ccc(N2CCN(C(=O)c3ccco3)CC2)c(Cl)c1)c1cccs1	-21.8
O=S(=O)(NCCc1csc(-c2cccnc2)n1)c1ccc2c(c1)OCCO2	-3.79
COc1ccccc1N1CCN(CC(=O)c2c(C)n(C)c3ccccc23)CC1	-24.1
O=C(CSc1nc(-c2ccccc2)ns1)N1CCOCC1	13
CN(C)CCC(=O)N1c2ccccc2Sc2ccc(C(F)(F)F)cc21.O=C(O)/C=C/C(=O)O	-9.9

Source: article PMC4336329 (PLoS ONE, 2015)
